Targets with the largest changes are over-represented here; the source holds about 21,000 in all.
Compound: CC1Cc2ccccc2N1C(=O)C1CCCN(C1)C(=O)CCl (mixture of isomers) [TRIM25 ligand 11 (diastereomer mixture)]
Experiment: probe-labelled cysteine peptide fold change vs DMSO (competition) (log2 fold change); higher = less target engagement (more negative = stronger competition)
Settings: THP-1, incubation time: 4 h
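Further: competitive chemoproteomic profiling in live THP-1 cells with an iodoacetamide desthiobiotin (IA-DTB) probe, comparing probe-labelled peptide intensities in compound-treated cells against DMSO-treated controls.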

CASP6_P55212_68_GTCADRDNLTR (UniProt P55212)
probe-labelled cysteine peptide fold change (10 µM): -0.0456

CABLES2_Q9BTV7_181_IVLICAK (UniProt Q9BTV7)
UniProt Q9BTV7, sequence (Q9BTV7 whole entry): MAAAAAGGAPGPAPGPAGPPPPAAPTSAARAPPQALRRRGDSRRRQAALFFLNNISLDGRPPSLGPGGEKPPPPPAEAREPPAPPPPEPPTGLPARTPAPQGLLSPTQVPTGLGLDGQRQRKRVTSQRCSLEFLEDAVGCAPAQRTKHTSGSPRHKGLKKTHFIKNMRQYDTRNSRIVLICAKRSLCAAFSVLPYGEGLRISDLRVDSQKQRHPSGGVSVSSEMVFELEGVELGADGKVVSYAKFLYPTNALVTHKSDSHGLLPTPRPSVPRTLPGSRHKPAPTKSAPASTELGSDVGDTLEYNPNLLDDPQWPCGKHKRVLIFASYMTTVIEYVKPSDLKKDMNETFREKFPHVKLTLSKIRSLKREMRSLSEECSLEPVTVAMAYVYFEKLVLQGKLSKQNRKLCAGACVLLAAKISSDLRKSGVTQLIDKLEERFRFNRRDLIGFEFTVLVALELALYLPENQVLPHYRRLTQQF
probe-labelled cysteine peptide fold change (10 µM): 0.0124
probe-labelled cysteine peptide fold change (50 µM): 0.153

CAST_P20810-2_228_YRELLAKPIGPDDAIDALSSDFTCGSPTAAGK (UniProt P20810)
probe-labelled cysteine peptide fold change (10 µM): -0.236

CCT6A_P40227_406_NAIDDGCVVPGAGAVEVAMAEALIK (UniProt P40227)
probe-labelled cysteine peptide fold change (10 µM): -0.00478

BRIX1_Q8TDN6_107_LFVINEVCEMK (UniProt Q8TDN6)
probe-labelled cysteine peptide fold change (10 µM): -0.0374
probe-labelled cysteine peptide fold change (50 µM): 0.0843

CHD1L_Q86WJ1_123_FAPGLSCVTYAGDKEER (UniProt Q86WJ1)
probe-labelled cysteine peptide fold change (10 µM): -0.0411

CCT8_P50990_148_AHEILPNLVCCSAK (UniProt P50990)
probe-labelled cysteine peptide fold change (10 µM): 0.0907

CHEK2_O96017_108_LWALQDGFANLECVNDNYWFGR (UniProt O96017)
probe-labelled cysteine peptide fold change (10 µM): 0.00573

CCDC186_Q7Z3E2_80_IEAQENYIPDHGGGEDSCAK (UniProt Q7Z3E2)
probe-labelled cysteine peptide fold change (10 µM): 0.0236

COPB1_P53618_102_LLHEMILVCDAYRK (UniProt P53618)
UniProt P53618, sequence (P53618 whole entry, looked up): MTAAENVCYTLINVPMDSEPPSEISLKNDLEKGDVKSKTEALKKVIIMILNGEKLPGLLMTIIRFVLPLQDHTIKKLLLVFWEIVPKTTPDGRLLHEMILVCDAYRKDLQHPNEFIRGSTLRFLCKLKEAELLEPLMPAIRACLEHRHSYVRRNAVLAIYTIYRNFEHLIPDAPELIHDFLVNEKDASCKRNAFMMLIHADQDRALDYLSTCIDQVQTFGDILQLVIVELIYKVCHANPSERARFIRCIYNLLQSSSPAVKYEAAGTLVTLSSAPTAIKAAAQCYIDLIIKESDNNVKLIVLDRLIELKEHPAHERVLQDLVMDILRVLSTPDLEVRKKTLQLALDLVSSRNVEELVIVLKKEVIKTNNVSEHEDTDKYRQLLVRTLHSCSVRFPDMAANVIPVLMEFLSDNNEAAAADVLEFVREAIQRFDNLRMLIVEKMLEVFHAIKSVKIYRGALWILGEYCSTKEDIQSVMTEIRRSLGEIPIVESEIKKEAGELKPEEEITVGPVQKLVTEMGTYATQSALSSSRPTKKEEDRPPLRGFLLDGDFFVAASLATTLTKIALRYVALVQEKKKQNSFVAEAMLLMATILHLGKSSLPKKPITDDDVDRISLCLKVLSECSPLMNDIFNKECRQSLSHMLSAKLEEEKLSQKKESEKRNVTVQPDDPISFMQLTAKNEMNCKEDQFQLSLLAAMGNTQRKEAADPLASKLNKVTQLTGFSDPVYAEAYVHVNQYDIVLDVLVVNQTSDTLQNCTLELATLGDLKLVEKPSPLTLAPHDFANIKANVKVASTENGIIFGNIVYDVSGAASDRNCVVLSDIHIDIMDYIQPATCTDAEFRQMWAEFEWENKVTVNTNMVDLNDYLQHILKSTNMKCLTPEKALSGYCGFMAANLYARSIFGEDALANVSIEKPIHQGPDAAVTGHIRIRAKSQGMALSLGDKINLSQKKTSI
probe-labelled cysteine peptide fold change (10 µM): -0.45
probe-labelled cysteine peptide fold change (50 µM): -0.0937

COMT_P21964_207_DRYLPDTLLLEECGLLR (UniProt P21964)
probe-labelled cysteine peptide fold change (10 µM): -0.048

COMP_P49747_520_VVDKIDVCPENAEVTLTDFR (UniProt P49747)
probe-labelled cysteine peptide fold change (10 µM): 0.221

CD40_P25942_119_GTSETDTICTCEEGWHCTSEACESCVLHR (UniProt P25942)
UniProt P25942, sequence (P25942 whole entry, looked up): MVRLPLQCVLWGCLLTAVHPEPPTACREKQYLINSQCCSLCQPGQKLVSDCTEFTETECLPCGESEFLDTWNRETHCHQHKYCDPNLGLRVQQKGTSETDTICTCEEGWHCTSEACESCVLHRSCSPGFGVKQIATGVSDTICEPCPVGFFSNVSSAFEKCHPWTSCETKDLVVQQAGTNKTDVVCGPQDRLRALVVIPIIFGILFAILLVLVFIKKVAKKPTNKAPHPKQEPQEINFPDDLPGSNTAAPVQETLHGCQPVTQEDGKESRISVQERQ
probe-labelled cysteine peptide fold change (10 µM): 0.209
probe-labelled cysteine peptide fold change (50 µM): -0.592

CHD9_Q3L8U1_1375_FCEEDIDQILLR (UniProt Q3L8U1)
UniProt Q3L8U1, sequence (Q3L8U1 whole entry, looked up): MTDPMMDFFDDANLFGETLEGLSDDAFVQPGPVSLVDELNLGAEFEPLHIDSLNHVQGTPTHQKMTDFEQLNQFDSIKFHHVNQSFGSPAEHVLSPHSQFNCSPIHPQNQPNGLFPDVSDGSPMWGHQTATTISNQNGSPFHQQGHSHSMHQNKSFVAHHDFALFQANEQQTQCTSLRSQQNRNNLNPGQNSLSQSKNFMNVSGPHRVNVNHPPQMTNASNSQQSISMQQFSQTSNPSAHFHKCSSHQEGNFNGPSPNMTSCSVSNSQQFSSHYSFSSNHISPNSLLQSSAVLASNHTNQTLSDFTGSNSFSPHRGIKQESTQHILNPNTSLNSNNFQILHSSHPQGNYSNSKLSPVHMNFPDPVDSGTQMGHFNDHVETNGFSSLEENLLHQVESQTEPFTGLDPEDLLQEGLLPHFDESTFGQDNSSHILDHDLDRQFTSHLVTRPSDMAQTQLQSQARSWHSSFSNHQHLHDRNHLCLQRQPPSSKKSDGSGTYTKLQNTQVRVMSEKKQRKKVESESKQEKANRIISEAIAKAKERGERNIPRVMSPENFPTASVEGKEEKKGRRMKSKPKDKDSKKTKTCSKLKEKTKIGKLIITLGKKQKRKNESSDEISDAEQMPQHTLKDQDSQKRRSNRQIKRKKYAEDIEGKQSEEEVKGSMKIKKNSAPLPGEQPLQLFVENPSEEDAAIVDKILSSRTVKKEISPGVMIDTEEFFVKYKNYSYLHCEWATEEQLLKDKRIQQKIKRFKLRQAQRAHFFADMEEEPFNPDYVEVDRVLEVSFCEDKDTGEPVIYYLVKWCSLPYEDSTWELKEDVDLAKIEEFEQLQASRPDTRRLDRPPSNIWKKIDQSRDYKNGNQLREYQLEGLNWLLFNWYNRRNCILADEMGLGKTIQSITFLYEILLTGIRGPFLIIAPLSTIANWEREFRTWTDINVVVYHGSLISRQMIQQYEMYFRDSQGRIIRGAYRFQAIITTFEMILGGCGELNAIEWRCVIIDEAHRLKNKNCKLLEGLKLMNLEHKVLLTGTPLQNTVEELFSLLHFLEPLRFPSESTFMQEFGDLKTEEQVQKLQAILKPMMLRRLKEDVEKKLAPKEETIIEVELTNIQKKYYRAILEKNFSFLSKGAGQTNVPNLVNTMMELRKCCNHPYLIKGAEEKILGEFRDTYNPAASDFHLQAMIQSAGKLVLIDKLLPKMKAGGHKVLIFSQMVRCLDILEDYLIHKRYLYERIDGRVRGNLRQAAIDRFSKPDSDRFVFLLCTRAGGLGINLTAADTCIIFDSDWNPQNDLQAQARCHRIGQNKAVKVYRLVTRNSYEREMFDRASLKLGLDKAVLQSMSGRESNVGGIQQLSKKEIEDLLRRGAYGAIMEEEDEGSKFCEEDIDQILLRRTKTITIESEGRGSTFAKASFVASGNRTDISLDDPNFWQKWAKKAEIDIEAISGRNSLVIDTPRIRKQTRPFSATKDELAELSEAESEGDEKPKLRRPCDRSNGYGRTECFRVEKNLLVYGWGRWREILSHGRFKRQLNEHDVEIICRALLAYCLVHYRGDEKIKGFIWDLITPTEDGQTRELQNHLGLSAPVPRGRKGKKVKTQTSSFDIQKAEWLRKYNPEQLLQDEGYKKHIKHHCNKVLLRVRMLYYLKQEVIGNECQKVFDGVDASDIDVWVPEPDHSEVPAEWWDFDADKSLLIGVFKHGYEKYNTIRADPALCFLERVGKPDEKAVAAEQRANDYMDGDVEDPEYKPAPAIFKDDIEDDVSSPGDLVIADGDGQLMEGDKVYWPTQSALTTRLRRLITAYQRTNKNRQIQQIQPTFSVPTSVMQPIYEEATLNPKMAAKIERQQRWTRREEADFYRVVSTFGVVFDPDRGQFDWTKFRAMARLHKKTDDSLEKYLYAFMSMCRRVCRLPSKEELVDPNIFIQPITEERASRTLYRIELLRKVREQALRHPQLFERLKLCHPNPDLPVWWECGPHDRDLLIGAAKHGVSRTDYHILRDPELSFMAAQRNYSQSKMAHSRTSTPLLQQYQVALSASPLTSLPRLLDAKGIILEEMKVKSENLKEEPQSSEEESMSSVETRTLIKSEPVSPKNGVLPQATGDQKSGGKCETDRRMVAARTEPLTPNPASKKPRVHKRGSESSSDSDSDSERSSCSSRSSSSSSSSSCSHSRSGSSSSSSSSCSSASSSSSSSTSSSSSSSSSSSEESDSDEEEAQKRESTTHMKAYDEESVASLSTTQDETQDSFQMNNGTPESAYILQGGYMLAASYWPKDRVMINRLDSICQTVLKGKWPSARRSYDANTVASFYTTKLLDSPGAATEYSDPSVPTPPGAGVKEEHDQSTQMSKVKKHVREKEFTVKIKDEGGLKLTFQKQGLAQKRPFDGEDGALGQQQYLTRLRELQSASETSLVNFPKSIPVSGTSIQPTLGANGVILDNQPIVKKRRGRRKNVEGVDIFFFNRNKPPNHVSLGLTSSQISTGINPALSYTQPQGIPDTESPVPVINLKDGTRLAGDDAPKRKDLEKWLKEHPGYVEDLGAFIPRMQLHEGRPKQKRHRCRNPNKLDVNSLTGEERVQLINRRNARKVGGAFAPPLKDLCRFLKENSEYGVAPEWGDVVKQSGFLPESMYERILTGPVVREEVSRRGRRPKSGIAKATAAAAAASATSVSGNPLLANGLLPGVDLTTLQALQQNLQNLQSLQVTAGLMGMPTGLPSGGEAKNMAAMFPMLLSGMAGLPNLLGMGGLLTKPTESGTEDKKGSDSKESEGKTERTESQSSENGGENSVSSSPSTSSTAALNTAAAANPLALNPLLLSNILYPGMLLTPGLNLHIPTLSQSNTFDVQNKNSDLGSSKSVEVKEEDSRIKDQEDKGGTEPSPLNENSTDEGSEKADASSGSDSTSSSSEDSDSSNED
probe-labelled cysteine peptide fold change (10 µM): 0.364
probe-labelled cysteine peptide fold change (50 µM): 0.0618

CAP1_Q01518_93_LERALLVTASQCQQPAENK (UniProt Q01518)
UniProt Q01518, sequence (Q01518 whole entry, looked up): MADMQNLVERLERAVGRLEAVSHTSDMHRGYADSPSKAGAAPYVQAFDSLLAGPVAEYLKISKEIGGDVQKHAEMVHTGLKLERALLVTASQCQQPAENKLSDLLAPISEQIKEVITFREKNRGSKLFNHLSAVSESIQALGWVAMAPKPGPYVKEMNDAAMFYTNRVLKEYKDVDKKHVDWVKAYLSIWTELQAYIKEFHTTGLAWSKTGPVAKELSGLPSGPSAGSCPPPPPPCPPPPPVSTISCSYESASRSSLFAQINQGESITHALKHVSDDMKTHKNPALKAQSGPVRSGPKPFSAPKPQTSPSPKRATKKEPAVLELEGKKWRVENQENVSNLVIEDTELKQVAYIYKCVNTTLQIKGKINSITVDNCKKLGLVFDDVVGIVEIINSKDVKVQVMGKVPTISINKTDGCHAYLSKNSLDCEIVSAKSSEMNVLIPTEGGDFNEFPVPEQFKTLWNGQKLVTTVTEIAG
probe-labelled cysteine peptide fold change (10 µM): 0.167
probe-labelled cysteine peptide fold change (50 µM): 0.0735
